Data published in US10577308B2, “Sodium channel modulators” (The Florey Institute of Neuroscience and Mental Health, priority 2015, dated 2020).

tested on: sodium channel site 2; details: rat forebrain membranes, [3H]batrachotoxinin 5 nM, 37° C. 60 min; read-out: IC50 binding to sodium channel site 2 in competition with [3H]batrachotoxinin

`Cc1cccc(C)c1OCCCNCc1ccc(C(F)(F)F)cc1` [Compound 526] and `Cc1cccc(C)c1OCCCNC(C)c1ccccc1` (stereo not shown) [Compound 553, 3-(2,6-Dimethylphenoxy)-N-(1-phenylethyl)propan-1-amine] are within 1.5-fold of each other in IC50: 375 nM for the first, 530 nM for the second.

Compared with `Cc1cccc(C)c1OCCCNCc1ccc(F)cc1` [Compound 521, 3-(2,6-Dimethylphenoxy)-N-(4-fluorobenzyl)propan-1-amine], `CC(=O)Nc1ccc(CNCCCOc2c(C)cccc2C)cc1` [Compound 542, N-(4-((3-(2,6-Dimethylphenoxy)propylamino)methyl)phenyl)acetamide] is higher in IC50: 570 nM for the first, > 900 nM for the second.

`COc1ccc(CNCCCOc2c(C)cccc2C)cc1` [Compound 520, 3-(2,6-Dimethylphenoxy)-N-(4-methoxybenzyl)propan-1-amine] and `Cc1cccc(C)c1OCCCNCc1ccccc1C(F)(F)F` [Compound 534, 3-(2,6-Dimethylphenoxy)-N-(2-(trifluoromethyl)benzyl)propan-1-amine] are within 1.5-fold of each other in IC50: 438 nM for the first, 444 nM for the second.

Going from `Cc1cccc(C)c1OCCCNCc1ccccc1F` [Compound 551, 3-(2,6-Dimethylphenoxy)-N-(2-fluorobenzyl)propan-1-amine] to `Cc1cccc(C)c1OCCCNCc1ccccc1` [Compound 518, N-Benzyl-3-(2,6-dimethylphenoxy)propan-1-amine], the IC50 falls from 793 nM to 404 nM (2-fold). The second is the more potent here.

“3-(2,6-Dimethylphenoxy)-N-(3-(trifluoromethyl)benzyl)propan-1-amine [Compound 533]” and `Cc1cccc(C)c1OCCCNCc1ccc(C#N)cc1` [Compound 519, 4-((3-(2,6-Dimethylphenoxy)propylamino)methyl)benzonitrile] are within 1.5-fold of each other in IC50: 468 nM for the first, 680 nM for the second.

Compared with `Cc1cccc(C)c1OCCCNCc1ccccc1-c1ccccc1` [Compound 536, N-(Biphenyl-2-ylmethyl)-3-(2,6-dimethylphenoxy)propan-1-amine], `COc1cccc(CNCCCOc2c(C)cccc2C)c1` [Compound 525, 3-(2,6-Dimethylphenoxy)-N-(3-methoxybenzyl)propan-1-amine] is 1.7-fold higher in IC50: 200 nM for the first, 340 nM for the second.

`Cc1cccc(C)c1OCCCNCc1cccc(F)c1` [Compound 552, 3-(2,6-Dimethylphenoxy)-N-(3-fluorobenzyl)propan-1-amine] and “3-((3-(2,6-Dimethylphenoxy)propylamino)methyl)benzonitrile [Compound 524]” are within 1.5-fold of each other in IC50: 733 nM for the first, 535 nM for the second.

First: Cc1cccc(C)c1OCCCNCc1ccc(OC(F)(F)F)cc1 [Compound 531, 3-(2,6-Dimethylphenoxy)-N-(4-(trifluoromethoxy)benzyl)propan-1-amine]
Second: Cc1cccc(C)c1OCCCNCc1nn(Cc2ccccc2)c2ccccc12 [Compound 540, N-((1-Benzyl-1H-indazol-3-yl)methyl)-3-(2,6-dimethylphenoxy)propan-1-amine]
The IC50 of the first is 2.6-fold higher: 359 nM for the first, 140 nM for the second.

Compared with `Cc1cccc(C)c1OCCCNCc1cccnc1` [Compound 528, 3-(2,6-Dimethylphenoxy)-N-(pyridin-3-ylmethyl)propan-1-amine], `Cc1cccc(C)c1OCCCNCc1cccc(-c2ccccc2)c1` [Compound 535, N-(Biphenyl-3-ylmethyl)-3-(2,6-dimethylphenoxy)propan-1-amine] is lower in IC50: > 900 nM for the first, 159 nM for the second. The second is the more potent here.

Compared with `Cc1cccc(C)c1OCCCNCc1ccc(O)cc1` [Compound 550, 4-((3-(2,6-Dimethylphenoxy)propylamino)methyl)phenol], `Cc1cccc(C)c1OCCCNCc1ccccn1` [Compound 523, 3-(2,6-Dimethylphenoxy)-N-(pyridin-2-ylmethyl)propan-1-amine] is 1.7-fold higher in IC50: 1190 nM for the first, 2060 nM for the second.

Compared with `Cc1cccc(C)c1OCCCNCc1noc(C(C)C)n1` [Compound 538, 3-(2,6-Dimethylphenoxy)-N-((5-isopropyl-1,2,4-oxadiazol-3-yl)methyl)propan-1-amine], `Cc1cccc(C)c1OCCCNCc1ccc(-c2ccccc2)cc1` [Compound 522, N-(Biphenyl-4-ylmethyl)-3-(2,6-dimethylphenoxy)propan-1-amine] is lower in IC50: > 900 nM for the first, < 300 nM for the second.

`Cc1cccc(C)c1OCCCNCc1cc(Cl)c(O)c(Cl)c1` [Compound 504, 2,6-Dichloro-4-((3-(2,6-dimethylphenoxy)propylamino)methyl)phenol] and `COc1ccccc1CNCCCOc1c(C)cccc1C` [Compound 530, 3-(2,6-Dimethylphenoxy)-N-(2-methoxybenzyl)propan-1-amine] cannot be ordered by IC50: > 900 nM for the first, > 900 nM for the second.

For `Cc1cccc(C)c1OCCCNCc1ccc(S(N)(=O)=O)cc1` [Compound 532, 4-((3-(2,6-Dimethylphenoxy)propylamino)methyl)benzenesulfonamide], the IC50 was > 900 nM.
